# Experimental data reported in article PMC4336329 (PLoS ONE, 2015).
# The whole screen tested about 310,000 compounds, of which about 2,200 (0.71%) showed an effect of 50% or more. Effects have a minus sign here. The list shows a part of the results.
# Target: human ether-à-go-go-related gene (hERG) potassium channel (human, UniProt Q12809)
# Experiment: primary screen, population patch clamp on CHO cells stably expressing hERG
# Sequence of human ether-à-go-go-related gene (hERG) potassium channel (Q12809 whole entry, looked up): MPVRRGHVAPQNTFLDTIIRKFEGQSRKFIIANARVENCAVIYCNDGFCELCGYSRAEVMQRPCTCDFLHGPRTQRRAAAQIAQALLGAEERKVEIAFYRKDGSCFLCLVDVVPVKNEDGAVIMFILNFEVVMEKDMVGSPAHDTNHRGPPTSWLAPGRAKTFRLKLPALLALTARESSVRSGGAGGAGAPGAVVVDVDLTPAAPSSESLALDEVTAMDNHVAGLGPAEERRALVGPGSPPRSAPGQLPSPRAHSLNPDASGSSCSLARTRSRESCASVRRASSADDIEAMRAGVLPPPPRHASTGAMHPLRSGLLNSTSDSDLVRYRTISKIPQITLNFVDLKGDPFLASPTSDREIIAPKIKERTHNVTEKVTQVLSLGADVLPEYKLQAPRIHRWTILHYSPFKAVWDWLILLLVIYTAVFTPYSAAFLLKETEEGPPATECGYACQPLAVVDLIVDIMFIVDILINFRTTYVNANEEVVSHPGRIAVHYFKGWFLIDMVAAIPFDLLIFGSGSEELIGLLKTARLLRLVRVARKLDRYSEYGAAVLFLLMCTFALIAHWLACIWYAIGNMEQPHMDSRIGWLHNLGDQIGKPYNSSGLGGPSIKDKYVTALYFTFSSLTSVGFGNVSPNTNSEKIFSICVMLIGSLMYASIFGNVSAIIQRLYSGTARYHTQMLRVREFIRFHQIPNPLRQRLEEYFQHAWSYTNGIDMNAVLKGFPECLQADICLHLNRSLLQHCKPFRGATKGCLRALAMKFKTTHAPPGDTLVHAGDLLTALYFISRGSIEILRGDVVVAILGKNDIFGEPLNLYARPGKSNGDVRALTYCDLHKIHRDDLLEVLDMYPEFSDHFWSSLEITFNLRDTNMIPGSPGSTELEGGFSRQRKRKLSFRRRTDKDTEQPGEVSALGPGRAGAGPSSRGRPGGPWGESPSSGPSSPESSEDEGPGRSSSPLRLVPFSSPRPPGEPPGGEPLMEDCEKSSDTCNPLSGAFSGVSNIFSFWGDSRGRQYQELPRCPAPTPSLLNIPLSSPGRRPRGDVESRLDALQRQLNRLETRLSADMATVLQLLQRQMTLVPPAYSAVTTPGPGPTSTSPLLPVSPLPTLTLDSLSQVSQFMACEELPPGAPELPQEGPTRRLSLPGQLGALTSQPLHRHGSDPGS
row,SMILES,"hERG current change (%, negative = inhibition) at 1uM [%]"
1,COC(=O)c1nn(-c2ccccc2)ccc1=O,13.1
2,CN1CCN(c2oc(-c3ccccc3)nc2S(=O)(=O)c2ccc(Br)cc2)CC1,2.79
3,COC(=O)/C(=C\Nc1ccc(Cl)cc1Cl)NC(=O)c1ccc(Cl)cc1Cl,4.54
4,Clc1ccc(CCNc2ncnc3nc[nH]c23)cc1,10.2
5,COCCNC(=O)C(=O)N/N=C(\C)CC(=O)Nc1ccc(Cl)cc1Cl,3.08
6,COc1ccc2nc(Nc3nc4cc5c(cc4s3)OCO5)sc2c1,7.55
7,CC(C)(C)NC(=O)CSc1nc(-c2ccccc2)cc(=O)[nH]1,13.3
8,O=C(CN(C(=O)c1csnn1)c1cccc(F)c1)NCc1ccc(F)cc1,-13
9,CCOC(=O)c1cc(C)n(Cc2ccc(OCC)c(OC)c2)c1C,8.53
10,COc1ccc(Nc2nc(C)nc3c2oc2ccccc23)cc1,13.9
11,Cc1sc2nc(CSCC(=O)Nc3ccc(C(F)(F)F)cc3)[nH]c(=O)c2c1C,-1.73
12,Cc1ccc(CNC(=O)COC(=O)Cc2ccc(-c3ccccc3)cc2)cc1,11.6
13,COCCn1c(=O)[nH]c2cc(C(=O)NCc3ccccc3)ccc2c1=O,6.98
14,Cc1cc(-c2ccc(S(=O)(=O)N3CCCCC3)s2)on1,13.5
15,NC(=O)c1cccn1-c1ncc(C(F)(F)F)cc1Cl,10.3
16,CCCCNC(=O)O[C@@H]1C[C@H]2CCC(=O)N3CC[C@@H](C1)[C@@H]23,11.7
17,CCN(CC)CCN(Cc1cc2cc3c(cc2[nH]c1=O)OCCO3)C(=S)NC,8.75
18,CCC(C(=O)N1CCN(S(=O)(=O)c2sc(C(=O)O)c(C)c2C(=O)O)CC1)c1ccccc1 (stereo not shown),13.4
19,CC1CCCC(C)N1C(=O)c1cc2ncc(CCCl)cn2n1 (stereo not shown),16.5
20,Cc1ccc(O)c(NC(=O)C2CC(c3c(F)cccc3Cl)=NO2)c1 (stereo not shown),5.72
21,COc1ccc(CNC(=O)c2ccc(N3CCC4(CC3)CC(c3ccc(Cl)cc3)=NO4)c(N)c2)cc1,10.8
22,Cn1c(=O)n(C)c2cc([N+](=O)[O-])c(N3CCN(C(=O)c4cccc(Cl)c4)CC3)cc21,1.44
23,CCOCCOC(=O)C1=C(C)N(C)C(=O)NC1c1cc(Cl)c(O)c(OC)c1 (stereo not shown),4.47
24,O=C(c1ccccc1F)N1CCN(c2ccccn2)CC1,7.38
25,Cc1cc[n+](CC(=O)c2cccc([N+](=O)[O-])c2)c2ccccc12.[Br-],-6.95
26,O=C(CCn1cnnn1)Nc1cccc(F)c1,0.466
27,COC(=O)C1=C(C)NC(C)=C(C(=O)OC)C1C(=O)OCc1nnc(-c2ccccc2)o1,9.25
28,CCc1nnc(NS(=O)(=O)c2ccc(NC(=S)NC(=O)c3ccc(Br)cc3)cc2)s1,9.82

row,SMILES,"hERG current change (%, negative = inhibition) at 1uM [%]"
1,CCOC(=O)C1CCN(C(=O)c2cc3c(C)cc(C)cc3[nH]2)CC1,12
2,O=C(CN1CCN(c2ccccn2)CC1)NC1CCCC1,11.8
3,COc1ccccc1N(CC(O)CN1C(C)CCCC1C)S(=O)(=O)c1ccccc1 (stereo not shown),13.7
4,CC1=C(C(=O)N2CCOCC2)C(c2c(F)cccc2F)NC(=O)N1 (stereo not shown),-0.811
5,COc1cccc(OCC(=O)Nc2ccccc2NC(C)=O)c1,12.2
6,Cc1ccc(OCC(=O)NCCO)cc1C,12.3
7,COc1ccc(NC(=O)c2c(C)nn(Cc3ccccc3Cl)c2Cl)cc1Cl,8.84
8,O=C(NC1(C(F)(F)F)C(=O)Nc2c1c(=O)[nH]c(=O)n2Cc1ccco1)C1CCCCC1 (stereo not shown),20.9
9,O=C(Nc1ccc(F)cc1)Nc1nnc(COc2ccccc2F)s1,7.91
10,CSC1=NSC2=NC(=O)/C(=C\c3coc4ccccc4c3=O)C(=N)N12,5.07
11,CN1CCN(C(=O)/C(=C/c2cccnc2)NC(=O)c2cccc(Br)c2)CC1,8.02
12,COc1cc(OC)cc(C(=O)OCn2nnc3ccccc3c2=O)c1,11.4
13,Cc1ccc(-n2c(=S)sc3c(=O)n(-c4ccccc4F)c(SCC(=O)O)nc32)cc1C,12.2
14,CN(C)C(=O)N1CCC(C(=O)NCc2ccc3c(c2)OCO3)CC1,4.52
15,COn1c2c(c3c4no[n+]([O-])c4ccc31)CCCC2,18.4
16,Br.Cc1nc2ncccn2c1-c1csc(Nc2ccc(S(N)(=O)=O)cc2)n1,6.21
17,C=CCn1c(SCC(=O)Nc2c(C)n(C)n(-c3ccccc3)c2=O)nc2ccccc2c1=O,2.73
18,O=c1[nH]c2cc3c(cc2cc1CN(Cc1cccnc1)Cc1nnnn1Cc1ccco1)OCCO3,9.97
19,CCOP(=S)(OCC)c1ccc(N(C)C)cc1,0.0046
20,Cc1ccc(S(=O)(=O)NCC(=O)NCC(=O)N2CCN(c3ncccn3)CC2)cc1C,-2.6
21,COc1ccc(/C(C)=N/Nc2ccc(F)cc2F)c(O)c1,1.47
22,COc1ccccc1N(C)S(=O)(=O)c1ccc(C(=O)OCC(=O)NCc2ccco2)cc1,10.6
23,CCN(CC)c1ccc(N=Cc2c(C)[nH]c3ccccc23)cc1,6.92
24,CCc1nnc(NC(=O)CN2CCOCC2)s1,17.6
25,COc1cccc(/C=C2/C(=O)NN(c3ccccc3)C2=O)c1,17.2
26,O=C1CC(=C(c2ccccc2)c2ccccc2)C(=O)N1CCCN1CCN(c2cccc(Cl)c2)CC1,12.2
27,CCOC(=O)N1CCN(C(=O)CSc2nc3c([nH]c4ccccc43)c(=O)n2CCOC)CC1,-10.6
